Tested on: Rad51-related DNA repair

Cc1cn(-c2cc(NC(=O)c3ccc(C)c(Nc4nccc(-c5cccnc5)n4)c3)cc(C(F)(F)F)c2)cn1 [Nilotinib, 4-methyl-3-[[4-(3-pyridinyl)-2-pyrimidinyl]amino]-N-[5-(4-methyl-1H-imidazol-1-yl)-3-(trifluoromethyl)phenyl]benzamide]
CLB-induced Rad51-related DNA repair: inhibit

— patent publication US20110028422A1 (priority 2007, published 2011)
